Data from patent publication US20220112270.

Key:
[1] = target: plasma-derived human alpha 1-antitrypsin (AAT), P01009
[2] = target: recombinant human alpha 1-antitrypsin (AAT) derived from recombinant CHO cells

Chain of plasma-derived human alpha 1-antitrypsin (AAT), P01009 (P01009 whole entry, looked up): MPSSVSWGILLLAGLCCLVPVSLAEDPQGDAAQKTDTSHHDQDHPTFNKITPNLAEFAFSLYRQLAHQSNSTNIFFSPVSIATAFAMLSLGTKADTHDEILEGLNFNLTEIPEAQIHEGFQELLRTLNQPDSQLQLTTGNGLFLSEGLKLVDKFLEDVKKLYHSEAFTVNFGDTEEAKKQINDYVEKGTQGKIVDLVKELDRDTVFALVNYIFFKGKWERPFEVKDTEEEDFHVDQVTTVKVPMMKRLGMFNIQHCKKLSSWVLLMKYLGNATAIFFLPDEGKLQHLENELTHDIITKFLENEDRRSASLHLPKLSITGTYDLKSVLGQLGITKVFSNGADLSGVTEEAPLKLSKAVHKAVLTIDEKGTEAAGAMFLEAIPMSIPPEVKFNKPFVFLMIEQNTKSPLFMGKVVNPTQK

B1: pancreatic elastase (E7885; Sigma Aldrich) (protein)
chain: VVGGTEAQRNSWPSQISLQYRSGSSWAHTCGGTLIRQNWVMTAAHCVDRELTFRVVVGEHNLNQNDGTEQYVGVQKIVVHPYWNTDDVAAGYDIALLRLAQSVTLNSYVQLGVLPRAGTILANNSPCYITGWGLTRTNGQLAQTLQQAYLPTVDYAICSSSSYWGSTVKNSMVCAGGDGVRSGCQGDSGGPLHCLVNGQYAVHGVTSFVSRLGCNVTRKPTVFTRVSAYISWINNVIASN
- elastase activity (conversion of N-succinyl-Ala-Ala-Ala-p-nitroanilide, absorbance at 405 nm) [1]: in both cases of the presence of AAT elastase activity is reduced by about 50%
- elastase activity (conversion of N-succinyl-Ala-Ala-Ala-p-nitroanilide, absorbance at 405 nm) [2]: in both cases of the presence of AAT elastase activity is reduced by about 50%
